The results in this text go back to the BET-seq Pho4 binding data (Le et al. 2018).

The list shows a part of the results. The energies were worked out here from pooled read counts, against the library average; single values are noisy.

This assay deals with T1, Pho4 (S. cerevisiae) (UniProt P07270).
T1 sequence: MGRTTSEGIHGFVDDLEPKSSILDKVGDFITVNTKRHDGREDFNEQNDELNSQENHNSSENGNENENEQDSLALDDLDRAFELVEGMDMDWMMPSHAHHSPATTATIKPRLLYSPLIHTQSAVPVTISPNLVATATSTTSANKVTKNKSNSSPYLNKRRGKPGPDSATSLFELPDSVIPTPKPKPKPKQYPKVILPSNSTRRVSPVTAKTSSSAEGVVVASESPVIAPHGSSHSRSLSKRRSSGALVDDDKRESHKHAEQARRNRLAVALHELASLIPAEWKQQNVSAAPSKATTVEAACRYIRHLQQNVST
Briefly: relative binding free energy (BET-seq); higher = weaker binding. Particulars: reference: library average.
TAAAGCACGTGGTTAT: the “relative binding free energy” value is -0.14 kcal/mol.
The same measure for AGTATCACGTGGGGGG: 0.08 kcal/mol; for GTTCCCACGTGGTGGG: -0.05 kcal/mol; for GGTGTCACGTGGGTGT: 0.07 kcal/mol.
Next, ATGAGCACGTGATGAT: -0.07 kcal/mol; AACGGCACGTGAGGGA: 0.24 kcal/mol; GTTACCACGTGTGGCT: 0.15 kcal/mol.
As to CGTGGCACGTGTTAGT, the “relative binding free energy” value was -0.07 kcal/mol.
For ATTGTCACGTGAAATC, the “relative binding free energy” value was 0.37 kcal/mol.
The same measure for CGATACACGTGGGTGG: -0.06 kcal/mol; for AATTTCACGTGAATGG: 0.27 kcal/mol; for TATGGCACGTGATCGG: -0.09 kcal/mol.
The same measure for GCTGACACGTGTCGGG: 0.22 kcal/mol; for CTAAACACGTGTTGGT: -0.02 kcal/mol; for TGGGGCACGTGCGTGG: -0.18 kcal/mol.
Next, GTTGTCACGTGCTGGT: 0.13 kcal/mol.
On to TAATACACGTGGGTCG, for which the “relative binding free energy” value is -0.06 kcal/mol.
The same measure for TGTAGCACGTGGTTCA: -0.3 kcal/mol; for TGTACCACGTGGGGTT: -0.23 kcal/mol.
The same measure for TCTGTCACGTGGCTAG: 0.19 kcal/mol; for GTGAACACGTGAGTGA: 0.18 kcal/mol.
GTCGTCACGTGTGTGA: the “relative binding free energy” value was 0.23 kcal/mol.
The same measure for CGGGGCACGTGAAGCG: 0.14 kcal/mol.
The same measure for GGTAACACGTGATTGG: 0.12 kcal/mol.
The same measure for GAGTGCACGTGGGTAA: -0.08 kcal/mol.
For GTATTCACGTGAGTAT, the “relative binding free energy” value amounted to 0.31 kcal/mol.
As to GTTTTCACGTGAACGT, the “relative binding free energy” value was 0.48 kcal/mol.
Next, GAGGTCACGTGGGTTA: 0.08 kcal/mol; GAGTGCACGTGTTTTA: 0.03 kcal/mol; CTTTTCACGTGTGGCG: 0.17 kcal/mol.
For the sequence GGTTGCACGTGATGTG, the “relative binding free energy” value was 0.11 kcal/mol.
Next, AGTGGCACGTGTTGGT: -0.07 kcal/mol.
Take TTTTTCACGTGGTCAC: the “relative binding free energy” value turned out to be 0.22 kcal/mol.
GTGGGCACGTGGTTAT: the “relative binding free energy” value is -0.09 kcal/mol.
Next, ACAGGCACGTGGTTAT: -0.18 kcal/mol.
For TTTCGCACGTGGTTGT, the “relative binding free energy” value was -0.09 kcal/mol.
With AGTTTCACGTGTGCGG, the “relative binding free energy” value was 0.31 kcal/mol.
Consider TGCTTCACGTGAGTGC, for which the “relative binding free energy” value stood at 0.36 kcal/mol.
The same measure for GGGGCCACGTGTGGCG: 0.03 kcal/mol; for CTGATCACGTGAGTGG: 0.34 kcal/mol; for AACGGCACGTGGTTGA: -0.13 kcal/mol.
Consider ATTTTCACGTGTGCGC, for which the “relative binding free energy” value came out at 0.24 kcal/mol.
Next, GTTGACACGTGTAGTG: 0.11 kcal/mol.
Next, TATTACACGTGTTGGA: 0.15 kcal/mol; TTTGGCACGTGGCGGG: -0.11 kcal/mol.
Next, TATTTCACGTGTTCTT: 0.12 kcal/mol.
For TATATCACGTGGTTGC, the “relative binding free energy” value amounted to 0.02 kcal/mol.
As to TGTAACACGTGTTAGT, the “relative binding free energy” value was -0.01 kcal/mol.
AGTGTCACGTGTAATA: the “relative binding free energy” value turned out to be 0.25 kcal/mol.
Next, GTGTCCACGTGGGTAT: -0.17 kcal/mol.
Turning to TGTTTCACGTGCCGGA, the “relative binding free energy” value is 0.15 kcal/mol.
The same measure for TTTTGCACGTGTCTTT: 0.05 kcal/mol; for TATATCACGTGGGACA: 0.08 kcal/mol; for GGTGCCACGTGAAGGT: 0.2 kcal/mol.
Next, CGCTTCACGTGTAGTT: 0.2 kcal/mol.
For GGAAGCACGTGTGGAT, the “relative binding free energy” value turned out to be 0.02 kcal/mol.
For GTAGACACGTGTGAGG, the “relative binding free energy” value is 0.03 kcal/mol.
Next, AGGTGCACGTGTGAGG: 0 kcal/mol; TCGGACACGTGATTGT: 0.11 kcal/mol; GAGAACACGTGAGGTG: 0.35 kcal/mol.
With AAATCCACGTGTTTGG, the “relative binding free energy” value was 0.04 kcal/mol.
Next, AGTGTCACGTGAGTGG: 0.11 kcal/mol; GGTGTCACGTGAACGG: 0.24 kcal/mol; GAAGTCACGTGTTAAG: 0.21 kcal/mol.
Next, TTGTGCACGTGGAGGC: 0.01 kcal/mol; TTGTGCACGTGACCTG: 0.15 kcal/mol.
Next, TTATTCACGTGATTAG: 0.34 kcal/mol.
In the case of GACGGCACGTGGGGTG, the “relative binding free energy” value is -0.26 kcal/mol.
The same measure for GTTTTCACGTGATATA: 0.24 kcal/mol; for TTTAACACGTGTACTA: 0.06 kcal/mol.
For the sequence CCGGTCACGTGTGGTT, the “relative binding free energy” value stood at 0.11 kcal/mol.
Next, AATATCACGTGCTGTG: 0.14 kcal/mol; TAGTTCACGTGGTGCC: 0.18 kcal/mol.
Next, TGATCCACGTGAGTTT: 0.24 kcal/mol; GCGGTCACGTGAAGTT: 0.37 kcal/mol.
Regarding TGTCGCACGTGGGGCG, the “relative binding free energy” value is -0.2 kcal/mol.
Next, AGGTACACGTGGTAAG: -0.1 kcal/mol.
With TGGAGCACGTGCGGCG, the “relative binding free energy” value was 0.03 kcal/mol.
Next, AGTTACACGTGGGCTT: -0.12 kcal/mol; CGTTGCACGTGACAGG: 0.17 kcal/mol; CGTTACACGTGTTGTA: 0.22 kcal/mol.
With GTAAGCACGTGTGGAT, the “relative binding free energy” value was -0.01 kcal/mol.
Consider AAAATCACGTGAGTTG, for which the “relative binding free energy” value worked out at 0.26 kcal/mol.
The same measure for TTCTGCACGTGATGGA: 0.11 kcal/mol.
The same measure for GTTGTCACGTGCGCGG: -0.04 kcal/mol; for CTTAACACGTGGAGGT: -0.09 kcal/mol.
Next, TTTTCCACGTGTTGTC: 0.04 kcal/mol.
Take GGTCACACGTGGTTGA: the “relative binding free energy” value was 0.06 kcal/mol.
As for GGACTCACGTGTGGTT, the “relative binding free energy” value came to 0.3 kcal/mol.
The same measure for ATTAACACGTGTCGGG: 0.09 kcal/mol; for GATAGCACGTGCGGGC: -0.04 kcal/mol; for TATTACACGTGGTTTA: 0.14 kcal/mol.
Next, TTCGACACGTGTGGAG: 0.21 kcal/mol; TTACTCACGTGGGCGT: 0.11 kcal/mol.
Next, AGTTACACGTGTCTGT: 0.18 kcal/mol; ATTGACACGTGTAATG: 0.18 kcal/mol.
On to GGGGGCACGTGTGTGC, for which the “relative binding free energy” value is 0.02 kcal/mol.
Next, TGCTGCACGTGGAAGG: 0.04 kcal/mol.
The same measure for GATCCCACGTGGTGGG: -0.04 kcal/mol; for GGTTCCACGTGCGGTG: 0.03 kcal/mol; for TTTATCACGTGTATCG: 0.01 kcal/mol.
Next, GGTTTCACGTGGAGAT: 0.3 kcal/mol; GTCGCCACGTGGTGTT: -0.09 kcal/mol; TCAGGCACGTGTTTTT: -0.04 kcal/mol.
For the sequence ACTAGCACGTGAAGGT, the “relative binding free energy” value was determined as 0.15 kcal/mol.
The same measure for GTGGCCACGTGCGTGG: -0.09 kcal/mol.
TCGTACACGTGGTGGT: the “relative binding free energy” value was -0.01 kcal/mol.
On to TTTTGCACGTGGGGCA, for which the “relative binding free energy” value is -0.11 kcal/mol.
With GTGAGCACGTGATATA, the “relative binding free energy” value is 0.06 kcal/mol.
Next, TTTATCACGTGGTACG: 0.13 kcal/mol.
As to CGTGTCACGTGTACAG, the “relative binding free energy” value came to 0.11 kcal/mol.
The same measure for TTTGGCACGTGTAGTC: 0.11 kcal/mol; for TCAAGCACGTGGGGTG: -0.31 kcal/mol.
On to CGCCGCACGTGTGGGG, for which the “relative binding free energy” value is 0.02 kcal/mol.
Regarding CAGTTCACGTGAGTTA, the “relative binding free energy” value was determined as 0.49 kcal/mol.
